Screen size: about 310,000 compounds; about 14,000 (4.5%) showed an effect of 50% or more. Effects have a minus sign here. Some of the results follow.
molecular target: human ether-à-go-go-related gene (hERG) potassium channel (human, UniProt Q12809); assay: primary screen, population patch clamp on CHO cells stably expressing hERG
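Further: peak tail current of the secondary pulse compared with the same well before compound.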

Chain of human ether-à-go-go-related gene (hERG) potassium channel (Q12809 whole entry, looked up): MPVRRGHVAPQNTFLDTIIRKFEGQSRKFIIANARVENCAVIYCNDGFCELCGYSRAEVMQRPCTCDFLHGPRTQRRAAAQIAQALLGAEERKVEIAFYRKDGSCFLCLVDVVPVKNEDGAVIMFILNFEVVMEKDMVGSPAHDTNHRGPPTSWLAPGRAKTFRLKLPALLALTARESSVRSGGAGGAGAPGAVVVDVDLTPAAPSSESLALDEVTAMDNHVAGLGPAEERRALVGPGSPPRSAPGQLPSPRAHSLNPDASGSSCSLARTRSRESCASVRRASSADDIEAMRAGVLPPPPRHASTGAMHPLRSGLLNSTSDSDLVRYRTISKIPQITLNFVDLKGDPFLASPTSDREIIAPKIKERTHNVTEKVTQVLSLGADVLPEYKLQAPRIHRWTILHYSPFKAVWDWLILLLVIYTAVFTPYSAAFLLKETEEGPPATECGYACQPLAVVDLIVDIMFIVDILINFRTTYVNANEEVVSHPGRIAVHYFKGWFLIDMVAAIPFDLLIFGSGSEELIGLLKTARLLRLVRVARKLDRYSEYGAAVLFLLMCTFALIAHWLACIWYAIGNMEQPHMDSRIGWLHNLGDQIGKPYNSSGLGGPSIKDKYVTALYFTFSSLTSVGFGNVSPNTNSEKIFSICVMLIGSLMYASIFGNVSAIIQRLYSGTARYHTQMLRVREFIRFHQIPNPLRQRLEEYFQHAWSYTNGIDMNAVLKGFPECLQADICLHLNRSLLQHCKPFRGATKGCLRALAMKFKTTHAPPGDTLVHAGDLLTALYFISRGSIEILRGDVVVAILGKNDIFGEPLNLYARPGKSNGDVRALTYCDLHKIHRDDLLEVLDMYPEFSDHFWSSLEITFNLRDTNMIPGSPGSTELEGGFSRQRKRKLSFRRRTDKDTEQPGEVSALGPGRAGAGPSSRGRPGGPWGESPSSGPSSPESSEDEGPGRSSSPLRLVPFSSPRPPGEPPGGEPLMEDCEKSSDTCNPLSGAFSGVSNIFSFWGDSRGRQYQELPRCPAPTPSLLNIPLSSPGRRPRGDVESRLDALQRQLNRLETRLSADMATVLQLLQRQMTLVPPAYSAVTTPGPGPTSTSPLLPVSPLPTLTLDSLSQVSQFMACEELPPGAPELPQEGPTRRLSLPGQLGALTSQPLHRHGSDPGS

SMILES	hERG current change (%, negative = inhibition) at 10uM
Cc1ccc(-n2nc3c(=O)n(CCCC(=O)NCc4ccccc4C)nc(C)c3c2C)cc1	0.63%
COc1ccc(CN(C)CC2CCCN(CCc3ccc(Cl)cc3)C2)cc1OC (stereo not shown)	-88.5%
O=C(CSc1ccc2c(c1)OCCO2)Nc1ncc(Cl)cc1Cl	-4.28%
COc1ccccc1CNS(=O)(=O)c1ccc2c(c1)N(C(C)=O)CCO2	-9.33%
O=C(O)CC(NC(=S)NCc1ccccc1)C(=O)O (stereo not shown)	-5.48%
CC(=O)Nc1ccc(NC(=O)Nc2ccccc2C)cc1	7.58%
O=C1CCN(CCc2ccccc2)CCN1[C@H](CO)Cc1ccccc1	-44.4%
N#CC1=C(N)C(C#N)(C#N)C2(CCC3(CC2)OCCO3)C2CC3(CC=C12)OCCO3 (stereo not shown)	-2.56%
O=C(Nc1ccc(S(=O)(=O)C(F)F)cc1)c1cccc(S(=O)(=O)N2CCOCC2)c1	-36.8%
CN1C(=O)C(Cc2nc3ccccc3c(=O)n2-c2ccccc2)c2ccccc21 (stereo not shown)	-21.1%
CCc1ccc(C(=O)CSc2nnc(C3CC3)n2C2CC2)cc1	-16.4%
CCNc1ccc(C(=O)N/N=C/c2c(C)nn(-c3ccccc3)c2N2CCCC2)cc1[N+](=O)[O-]	5.02%
O=C1CN(C(=O)CSc2nnnn2C2CC2)c2ccccc2N1	3.3%
C1=CCC(CN2CCN(C3CCCCCC3)CC2)CC1.O=C(O)C(=O)O (stereo not shown)	-40.1%
O=C(O)CCC(=O)N1N=C(c2ccccc2)CC1c1ccc(Br)cc1 (stereo not shown)	6.7%
CC(=O)Nc1c2c(nn1-c1ccccc1)CSC2	11.8%
Cc1ccc(-c2csc3nc[nH]c(=O)c23)cc1C	18.3%
COc1cc(CC(=O)O)ccc1OCc1ccccc1	4.35%
Nc1ccc(-c2sc(N)nc2-c2ccccc2)cc1	3.8%
Cc1cc(-c2onc(C)c2C(=O)O)no1	9.99%
COc1ccccc1NC(=O)N1CCCC1C(=O)NCc1ccccc1 (stereo not shown)	4.77%
CCN1CCN(C(c2ccccn2)c2c(NC(=O)c3ccccc3)sc(C)c2C)CC1 (stereo not shown)	-59.8%

SMILES	hERG current change (%, negative = inhibition) at 10uM
CCOC(=O)N1CCN(Cc2nc3cc(NC(=O)c4ccco4)ccc3n2CC)CC1	-58%
CCN(CC)c1ccc(NC(=O)c2ccc(NC(=O)C3CCCO3)cc2)c(C)c1 (stereo not shown)	3.37%
C[N+](C)(C)CCCCCC(=O)/C=N/O.[I-]	14.1%
COc1ccc(S(=O)(=O)N2CCCCCC2)cc1NC(=O)CN1C(=O)NC(C)(c2ccccc2)C1=O (stereo not shown)	-31.4%
COc1ccc(-c2cc(C(=O)OCC(=O)N(C)C)c3ccccc3n2)cc1	-5.96%
Cc1cc(CCN2CCC(=O)NC2=O)ccc1OC(C)C	6.24%
CC(C)(C)NC(=O)CN(Cc1ccc2c(c1)OCO2)C(=O)CCC(=O)Nc1nccs1	8.01%
O=C(COC(=O)/C=C/c1cccc([N+](=O)[O-])c1)Nc1ccc(Cl)cn1	5.09%
Cc1cc(C)n(-c2nc(NCCO)c3c4c(sc3n2)CCCC4)n1	1.39%
Cc1ccc(C(=O)C[n+]2ccc(-c3nnc4n3CCC4)cc2)cc1.[Br-]	10.4%
CCN(CC)CC.Cc1nnc(SCC(=O)NCc2ccc3c(c2)OCO3)[nH]c1=O.Cl	4.46%
CCCCCn1c(CN2CCCCC2CC)nc2c1c(=O)n(C)c(=O)n2C (stereo not shown)	-44.7%
Cc1nc2c(sc(=S)n2Cc2ccco2)c(=O)n1CC(=O)Nc1ccccc1F	6.02%
CC(C)c1ccccc1N=C1SCCCN1C(=O)c1cccc(N2C(=O)CCC2=O)c1	11.2%
COc1ccc(N2CC(C(=O)N[C@@H](C)C(=O)N[C@H](CO)c3ccccc3)CC2=O)cc1 (stereo partly shown)	17.6%
c1ccc(CC2CCN(c3nnnn3-c3ccccc3)CC2)cc1	-13.1%
CC(=O)N1c2ccccc2NC2=C(C(=O)CC(C)(C)C2)C1c1cccn1C (stereo not shown)	6.95%
Cc1ccc(S(=O)(=O)Nc2cc3c(C(=O)O)c(C)oc3c3ccccc23)c(C)c1	17.5%
Cc1cccc(OCC(=O)OCC(=O)N2CCCc3ccccc32)c1C	8.81%
Cc1ccc(OCC(=O)N/N=C/c2ccncc2)cc1C	5.75%
CCCCCCC1CC(CCC(=O)Nc2ccc([N+](=O)[O-])cc2)C(=O)O1 (stereo not shown)	3.95%
CCC(=O)N1CCN(c2cc(C)ccc2C)CC1	3.22%

SMILES	hERG current change (%, negative = inhibition) at 10uM
CCCCC(=O)Nc1ccc(NCc2ccc(C)s2)cc1	-2.79%
Nc1ncccc1OCc1ccc(Cl)c(Cl)c1	-5.85%
Cc1sc(C(=O)Nc2ccc3ccccc3c2)cc1CC(=O)O	16.9%
COc1cc(NC(=O)COn2nnc3ccc(S(C)(=O)=O)cc32)cc(OC)c1	-0.99%
O=C(Cc1ccc(NC2=NC3CS(=O)(=O)CC3S2)cc1)NCCc1ccccc1 (stereo not shown)	6.22%
COC(=O)[C@@H](NC(=O)c1ccccc1OC1CCN(S(C)(=O)=O)CC1)C(C)C	4.81%
CCc1nnc(NC(=O)Cn2nc(-c3ccccc3OC)ccc2=O)s1	6.05%
COc1cc(N/C(N)=N/c2nc(C)cc(C)n2)c(OC)cc1Cl	-56.7%
CCCSc1nsc(NC(=O)CCC)n1	-19.7%
COc1ccc(OCc2cn3c(C)cc(C)nc3n2)cc1	-6.1%
CC(=O)c1cc(C#N)c(N(C)Cc2ccccc2)nc1C	-2.52%
CCCC(CCC)C(=O)NNc1cc(=O)c2c(=O)n(C)c(=O)n(C)c2[nH]1	13.5%
CN(C)c1nccc(N(Cc2ccccc2)Cc2ccccc2)c1C#N	-58.3%
Cc1ccc2c(=O)cc(C(=O)Nc3ccc(S(=O)(=O)Nc4onc(C)c4C)cc3)oc2c1	24.9%
CCN(CC)c1c([N+](=O)[O-])c(=O)n(C)c2ccccc12	-42.1%
O=C(CCN1C(=O)c2ccccc2C1=O)NCc1ccc(F)cc1	-15.5%
O=C1C=C(c2ccc3c(c2)OCO3)CCC1	6.65%
C[C@@H]1NS(=O)(=O)[C@H]2C[C@@H]3C=C[C@]2(O3)[C@H]1OC(=O)c1ccc(C(C)(C)C)cc1	1.88%
CN(C)S(=O)(=O)c1cccc(-c2nnc(SCc3cc(Cl)cc4c3OCOC4)n2N)c1	-13.8%
CCCCN(C)CCNC(=O)c1cc2c(-c3cccc(OC)c3)nn(C)c2s1	-49.5%
Nc1nonc1C(=O)NCCNC(=O)c1cccc(Cl)c1	-0.0265%
COc1ccc(NC(=O)Nc2ccc(C(=O)N3CCOCC3)cc2)cc1	6.27%

SMILES	hERG current change (%, negative = inhibition) at 10uM
S=C(Nc1ccccc1)Nc1nc2ccccc2n1CCOc1ccc(Cl)cc1	17.2%
CC(=O)c1cccc(OC(=O)C2=CC=CN3CCS(=O)(=O)N=C23)c1	10.4%
COc1ccc(OC)c(NC(=O)Nc2ccc3c(c2)OCO3)c1	23.5%
CCN(CC)CCn1c(=S)[nH]c2ccc(Cl)cc2c1=O	-60.8%
CCCCCC1CC(=O)N(Cc2ccccc2)C(=O)N1 (stereo not shown)	-21.7%
N#C/C(=C\c1ccccc1)C(=O)Nc1ccccn1	12.7%
CCOc1cc(S(=O)(=O)Nc2ccccn2)ccc1F	5.69%
CN1CCN(c2ccc(C(=O)c3cn(-c4ccc(F)c(Cl)c4)nn3)cc2)CC1	17.7%
CN(C)c1oc(-c2ccccc2F)nc1C#N	1.1%
CCOc1cccc2sc(N(CCCN(C)C)C(=O)c3ccc(S(=O)(=O)N4CCc5ccccc5C4)cc3)nc12.Cl	13.7%
Cc1cccc(C)c1OCC(=O)Nc1c(C)nn(C)c1C	22.8%
Cc1cc(/C=C(\C#N)C(=O)OCC(=O)NC(=O)NC(C)(C)C)c(C)n1CCC(C)C	5.62%
CCCCCCc1nnc(NC(=O)c2ccco2)s1	0.398%
CN(C)C(=O)N1CCC(C(=O)NCc2ccc(F)cc2)CC1	5.64%
COC(=O)c1ccc(C2/C(=C(/O)c3ccc4c(c3)CC(C)O4)C(=O)C(=O)N2CCN2CCOCC2)cc1 (stereo not shown)	5.74%
Nc1c(N(CCC2=CCCCC2)C(=O)COc2ccc(F)cc2)c(=O)[nH]c(=O)n1Cc1ccccc1	-6.12%
COC(=O)c1[nH]c(C)c(/C(O)=C2\C(=O)C(=O)N(CCCN3CCOCC3)C2c2ccccn2)c1C (stereo not shown)	2.5%
CC(C)CCn1nnnc1C(C(C)C)N1CCC(C(N)=O)CC1 (stereo not shown)	0.86%
COc1ccc(C)cc1-n1nnnc1SCC(=O)c1ccc2c(c1)OCCO2	4.19%
Cc1ccccc1NC(=O)Cn1c(C)nc2ccc(NC(=O)C3CC3)cc2c1=O	2.37%
Cc1ccc(-c2n[nH]c(=S)n2/N=C/c2ccc(C)s2)cc1	20%
O=C(COc1ccc2c(-c3ccccc3)cc(=O)oc2c1)Nc1ccc(CN2CCOCC2)cc1	13.3%
